# Experimental data: the supplement of paper PMC3334620
# Whole data set: some 33,000 sequences, median “E-score (-0.5 to 0.5)” near -0.012, cut for the highest 2% near 0.27. The list shows a part of the results.
# Molecular target: T1, Vhr1 (UniProt P40522)
# T1 sequence: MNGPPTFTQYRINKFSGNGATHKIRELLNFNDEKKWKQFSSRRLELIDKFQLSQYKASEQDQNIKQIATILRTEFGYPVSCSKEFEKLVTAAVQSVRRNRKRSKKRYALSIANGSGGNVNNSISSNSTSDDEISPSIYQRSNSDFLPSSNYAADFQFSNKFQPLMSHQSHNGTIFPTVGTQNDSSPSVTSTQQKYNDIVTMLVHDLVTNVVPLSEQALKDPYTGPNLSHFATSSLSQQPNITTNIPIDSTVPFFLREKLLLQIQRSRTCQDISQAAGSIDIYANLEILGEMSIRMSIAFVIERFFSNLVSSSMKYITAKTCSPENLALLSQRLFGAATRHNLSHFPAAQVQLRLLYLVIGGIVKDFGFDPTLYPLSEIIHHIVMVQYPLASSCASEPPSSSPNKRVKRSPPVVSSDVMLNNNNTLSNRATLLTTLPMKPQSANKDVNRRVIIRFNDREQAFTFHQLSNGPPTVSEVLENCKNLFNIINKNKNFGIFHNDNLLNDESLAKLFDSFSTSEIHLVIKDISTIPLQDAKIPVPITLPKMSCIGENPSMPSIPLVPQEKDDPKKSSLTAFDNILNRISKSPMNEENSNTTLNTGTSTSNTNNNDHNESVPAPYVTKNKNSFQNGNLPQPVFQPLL
# Experiment: PBM E-score (8-mer binding enrichment) (E-score (-0.5 to 0.5)); higher = stronger / more preferred TF binding; most listed sequences are background and not binding sites
# Conditions: protein concentration: 200 nM; construct: GST-full length
# Summary of the method: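 GST-tagged yeast TFs (full-length or DNA-binding domain) were made by PURExpress in vitro transcription/translation and applied at about 100-200 nM to universal all-10-mer Agilent arrays. The arrays were made double-stranded by primer extension, on fresh or once-stripped slides. Bound protein was detected with fluorescent anti-GST, and scans were normalised with masliner. Each ungapped eight-base word, pooled with its reverse complement, received an E-score (modified Wilcoxon-Mann-Whitney statistic) from the Universal PBM Analysis Suite.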
row,Sequence,PBM E-score
1,AGTCAATA,0.161
2,CTTCTATA,-0.143
3,CATACGAG,0.112
4,AATACCCT,-0.0923
5,GCGCAGGA,0.0795
6,CCTTACCC,0.0142
7,AAAGCTTG,-0.161
8,GGGTTCTA,-0.145
9,AAAAGCCC,-0.186
10,AGTGAGGA,0.114
11,AAGGCAGG,-0.0817
12,AACGTGAG,-0.11
13,CAGCCAAC,-0.117
14,CTATATAA,0.0181
15,CAGAACTG,0.153
16,AATATTCT,-0.0298
17,AGCGGTAT,0.0378
18,CGGACCCA,0.0185
19,ATTCCTAG,0.0815
20,ACGGCTTG,-0.115
21,CGGTGTGC,-0.103
22,ACTGTACA,0.0947
23,TAAAAAAA,-0.164
24,GGTTGAGA,0.0221
25,TATCTGGA,-0.0728

row,Sequence,PBM E-score
1,ACTTCTAC,-0.075
2,CGCCGACA,0.0419
3,CACGCCGC,-0.112
4,AGCGTGTC,0.0732
5,AAAGGCGA,-0.227
6,GGCGCTAC,-0.192
7,ACACGGTG,0.118
8,CGGATCGA,0.039
9,CCAACCCA,0.0301
10,ATTCAGGC,0.0614
11,CCACGGTC,-0.073
12,ACGACCAT,-0.0244
13,AGGTCAAT,-0.027
14,GTGCATCA,0.00352
15,AGAGCGTC,-0.252
16,GGCAGCTA,0.109
17,ATACATTG,0.0517
18,ATGTAGGC,-0.0432
19,AGGCAACA,-0.11
20,AGGCGGAA,-0.18
21,GGGCGGTA,-0.0437
22,TCGCACAA,-0.0435
23,TCGCTGAA,0.0432
24,ATAAGTGG,0.107
25,AACGTGCG,-0.145

row,Sequence,PBM E-score
1,CTACTTCA,-0.134
2,CGCACCAC,0.0664
3,CGAATTAG,-0.0167
4,GCGGACTA,0.0162
5,CACCTTCG,-0.0644
6,GGGTATAC,0.0585
7,ACCAGGAT,0.201
8,CCTCCGGC,-0.0235
9,CTATATGA,0.186
10,TCCTGACA,0.107
11,ACACCAAT,0.218
12,ATTATAGG,0.0514
13,AAACCAAC,-0.16
14,CAAGTGCA,-0.223
15,AATTACAC,-0.0469
16,ATCGTATA,0.0333
17,GCAATTAC,-0.0408
18,TAATCAAA,0.101
19,AAACCTAT,-0.214
20,CAATAAGG,-0.264
21,ACTGACCA,-0.0638
22,ATGGCGGC,0.0438
23,CCTCTACG,-0.223
24,GCAGATCA,-0.0544
25,AACAACAC,0.164

row,Sequence,PBM E-score
1,AAGAGACT,-0.187
2,CCATTCGG,0.00792
3,CTCGGTAA,-0.0875
4,AGATATCT,0.103
5,AGATGGGC,-0.0228
6,TAGTAATA,0.191
7,ACTACCAT,0.278
8,ACTAGGGA,-0.15
9,AAGCTTAT,-0.232
10,CGAACCCG,0.025
11,CAATAGGA,-0.193
12,ACAAACGC,-0.0485
13,ACGCCGAA,0.0473
14,CGAAACCA,0.14
15,ACCGATAT,0.0122
16,CATCAATA,0.0775
17,AACATTAC,-0.0222
18,ATACTACG,-0.0642
19,CAGCCATC,0.13
20,AGCGGGCG,-0.133
21,CAGGTCGG,-0.0228
22,ACCACTTA,-0.0242
23,GCAGGAGA,0.0933
24,CTATCCGC,0.0611
25,GACCCAGC,-0.0225

row,Sequence,PBM E-score
1,CTTATTGA,-0.0966
2,AATTAAAC,0.0684
3,CAAAGTAC,0.0896
4,CACGAATA,0.066
5,AGGCTTAG,-0.163
6,GCAAGGAA,-0.079
7,ACCCGTAT,-0.0629
8,GCGTCTAC,-0.312
9,AGATTCTA,-0.114
10,ACCAATTC,0.116
11,CGGCTCCA,0.0244
12,ATTCCGCC,-0.0421
13,CAAACAGA,0.0335
14,CCAGTGCG,-0.0412
15,CATGTTGC,0.0935
16,ATCTTTAG,0.112
17,CCACTCGG,-0.147
18,TATACGCA,0.126
19,AGTCGCGC,0.374
20,CCGATGAC,0.168
21,CGTCCTGC,0.0361
22,CGATGACC,0.181
23,ACAGCGAT,-0.04
24,AATAAGGT,-0.117
25,ATGATAAG,0.0266

row,Sequence,PBM E-score
1,ACAAGCGT,-0.0347
2,ATCTAGGA,-0.199
3,CGCGAAAC,-0.0322
4,CGTACGTA,-0.217
5,AGCGCAGA,-0.012
6,GTTAAGTA,-0.154
7,CTCATATA,0.00429
8,CGCATCCC,-0.154
9,AATATCGA,0.0962
10,CAGCCGAA,-0.104
11,CACGGGAG,-0.123
12,ACGGGCCT,-0.224
13,CGCCGGTA,0.127
14,AAACTATT,-0.0444
15,GATCCGGC,0.0568
16,CTGATGCA,0.0298
17,ATGAATCC,0.0842
18,GCATTCCA,-0.177
19,ATGGTGAA,0.0391
20,AAAACTAA,0.0441
21,AATGAACC,0.0042
22,ACCACCGT,0.0748
23,AATATTCC,0.0742
24,ACGGGGGG,-0.136
25,AGCCTCAC,0.0442

row,Sequence,PBM E-score
1,CCGAATGA,0.166
2,CGGCGCAC,0.111
3,GCTCTGTA,-0.0493
4,AGTAAAAA,-0.119
5,AGTAGGGA,-0.0322
6,ATCTCCTC,-0.0994
7,CTACGCTC,-0.129
8,AAGGGTTA,-0.127
9,ATTTTGCG,-0.0755
10,GCGCCCCC,0.0414
11,CCGTCGAG,0.114
12,AAATAATT,0.0111
13,GACGCCGC,0.0143
14,ACCCGGCA,0.121
15,CCGCAATA,0.189
16,CAACAAAG,0.174
17,ACAGTACG,0.148
18,GATACGAA,-0.0886
19,ATACGTTC,-0.107
20,CAAATCGA,-0.0596
21,GGTGCTTA,-0.189
22,ACTCTATC,-0.0003
